The campaign covered roughly 48,000 compounds. About 550 (1.1%) were called active. About 4% were inconclusive and are not listed. Rule as the data show it: active = potency below about 15 µM; inconclusive = mostly about 16 µM to 33 µM; inactive = weaker than that. The list shows a part of the results. Bounds are passed on as bounds.
Potency is read from the fitted curve at half-maximal effect.

This experiment concerns the target Lysosomal acid glucosylceramidase (Homo sapiens) (UniProt P04062). Briefly: Glucocerebrosidase.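 Also: the screen sought inhibitors.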 The conditions noted are these: purified enzyme, resorufin glucoside fluorescence (screen aimed at inhibitors), 20 min. A digest of the protocol: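 Wild-type enzyme at 0.2 nM final in 50mM citric acid/KH2PO4, 10mM sodium taurocholate, 0.01% tween-20, pH 5.9, with resorufin beta-D-glucopyranoside at 30 uM final. Compounds titrated, 20 min at RT, red fluorescence read; AC50 from titration.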
Sequence of UniProt P04062 (P04062 whole entry, looked up): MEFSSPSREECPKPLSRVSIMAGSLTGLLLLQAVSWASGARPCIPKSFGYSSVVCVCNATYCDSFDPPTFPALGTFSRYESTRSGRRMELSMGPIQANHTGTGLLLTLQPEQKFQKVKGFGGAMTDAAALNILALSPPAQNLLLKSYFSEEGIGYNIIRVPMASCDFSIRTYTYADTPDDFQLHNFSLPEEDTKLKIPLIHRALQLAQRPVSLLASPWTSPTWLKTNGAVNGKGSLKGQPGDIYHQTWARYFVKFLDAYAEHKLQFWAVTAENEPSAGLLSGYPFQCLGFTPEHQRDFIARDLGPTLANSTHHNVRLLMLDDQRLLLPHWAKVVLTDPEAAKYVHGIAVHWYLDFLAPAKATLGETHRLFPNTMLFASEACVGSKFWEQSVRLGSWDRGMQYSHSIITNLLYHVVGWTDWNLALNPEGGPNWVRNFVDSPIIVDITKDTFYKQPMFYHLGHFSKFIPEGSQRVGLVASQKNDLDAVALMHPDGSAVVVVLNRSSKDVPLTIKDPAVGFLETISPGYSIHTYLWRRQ
Regarding `COc1ccc(NC(=O)CSc2nccn2-c2ccccc2)cc1`, the Potency is inactive: > 76.9 µM.
On to `Cc1ccc(-n2nnnc2SCC(=O)Nc2ccc3c(c2)COC3=O)cc1C`, for which the Potency is inactive: > 76.9 µM.
Consider `Cc1noc(C)c1S(=O)(=O)N1CCC(C(=O)N2CCC(C)CC2)CC1`, for which the Potency was inactive: > 76.9 µM.
For `Cc1nnc(SCC(=O)c2cc(C)n(-c3ccc4c(c3)OCO4)c2C)s1` the value was inactive: > 76.9 µM.
With `NC(=O)c1ccsc1NC(=O)COC(=O)C1CCCN1C(=O)c1cccs1` (centres undefined) the figure was inactive: > 76.9 µM; with `CCCc1nc2c(nnn2Cc2ccccc2)c(=O)[nH]1`, inactive: > 76.9 µM; with `CCn1c(C)c(CCC(=O)O)c(=O)n2nc(-c3ccccc3OC)cc12`, inactive: > 76.9 µM.
Regarding `Cc1cc(C)nc(SCc2ccc(C(=O)O)o2)n1`, the Potency is inactive: > 76.9 µM.
For `Cc1ccsc1/C=c1\sc2ncnn2c1=O` the value was inactive: > 76.9 µM; for `CC(=O)N1CCc2cc(S(=O)(=O)CCC(=O)Nc3cccc(F)c3)ccc21`, inactive: > 76.9 µM; for `CC(C)Oc1ccc(C(=O)NCc2ccco2)cc1`, inactive: > 76.9 µM.
With `C=C(C)Cn1c(CCCNC(=O)C(C)(C)C)nc2ccccc21` the figure was inactive: > 76.9 µM.
For `NC(=O)CSc1nnc(-c2ccc(S(=O)(=O)N3CCOCC3)cc2)n1Cc1ccccc1`, the Potency was inactive: > 76.9 µM.
On to `Fc1ccccc1N1CCN(C(c2cccs2)c2nnnn2CCc2ccccc2)CC1` (centres undefined), for which the Potency is inactive: > 76.9 µM.
With `O=C(CN1CCN(Cc2ccc3c(c2)OCO3)CC1)N1CCc2[nH]c3ccccc3c2C1` the entry was “inactive”; with `COCC(=O)NC1CC2CCCC(C1)N2Cc1ccccc1` (centres undefined), inactive: > 76.9 µM.
Consider `COc1ccc(C(O)C(CC(=O)NCCCOC(C)C)C(=O)NCCCOC(C)C)cc1OC` (centres undefined), for which the Potency was inactive: > 76.9 µM.
For `Cn1cnnc1SCC(=O)Nc1sc2c(c1C#N)CCCCC2` the value was inactive: > 76.9 µM; for `Cc1ccc2c(c1)[nH]c1c(=O)n(CCCN3CCOCC3)cnc12`, inactive: > 76.9 µM.
Consider `c1nnn(C23CC4CC(CC(C4)C2)C3)n1`, for which the Potency was inactive: > 76.9 µM.
Regarding `CCOc1ccccc1N(C)C(=O)C1CCN(S(=O)(=O)c2cccc3nonc23)CC1`, the Potency is inactive: > 76.9 µM.
With `C=CCn1c(C)cc(C(=O)COc2ncnc3sccc23)c1C` the figure was inactive: > 76.9 µM; with `O=C(CCN1C(=O)C2C3C=CC(C3)C2C1=O)NCCc1ccccc1` (centres undefined), inactive: > 76.9 µM.
With `CCn1c(=O)cc(OCC(=O)Nc2ccc(Cl)cn2)c2ccccc21` the figure was inactive: > 76.9 µM.
Take `CCCn1c(Sc2nnnn2-c2ccccc2)n[nH]c1=O`: the Potency was inactive: > 76.9 µM.
With `O=C(OCc1cc(Cl)ccc1OC(F)F)c1cc(S(=O)(=O)O)ccc1O` the figure was inactive: > 76.9 µM; with `Cc1cc(C)c2cc(CN(Cc3cccs3)Cc3nnnn3CC3CCCO3)c(=O)[nH]c2c1` (centres undefined), inactive: > 76.9 µM; with `Cc1nnc(SCc2cc(=O)[nH]c(N3CCN(Cc4ccccc4)CC3)n2)s1`, inactive: > 76.9 µM.
In the case of `CCOC(=O)c1cc(-c2ccc(N)cc2)sc1N`, the Potency was inactive: > 76.9 µM.
Consider `CC1(C)C2CC=C(/C=N/n3cnnc3)C1C2` (centres undefined), for which the Potency was inactive: > 76.9 µM.
Turning to `O=C(CCN1CCN(CC(=O)Nc2ccccc2F)CC1)Nc1ccccc1F`, the Potency is inactive: > 76.9 µM.
As for `C=CCn1c(COc2ccccc2C)nnc1SCC(=O)O`, the Potency was inactive: > 76.9 µM.
Regarding `COc1cccc2cc(C(=O)N3CCN(C45CC6CC(CC(C6)C4)C5)CC3)c(=O)oc12`, the Potency is inactive: > 76.9 µM.
For `COc1ccc(NC(=O)C(CC(C)C)NC(=O)c2ccccc2C)cn1` (centres undefined) the value was inactive: > 76.9 µM.
For `CC1=C(C)CS(=O)N(c2ccc(S(N)(=O)=O)cc2)C1` (centres undefined) the value was inactive: > 76.9 µM; for `Cc1ccc(C2CCN(C(=O)Nc3ccccc3)C2)cc1` (centres undefined), inactive: > 76.9 µM; for `CC(C)N(Cc1nnc(-c2ccccc2Cl)o1)C(=O)c1cccc(C#N)c1`, inactive: > 76.9 µM.
On to `c1cc(C2OCCN2CC2COC3(CCCC3)O2)ccn1` (centres undefined), for which the Potency was inactive: > 76.9 µM.
For `O=C(OCc1nc2ccccc2s1)c1cccc(S(=O)(=O)N2CCOCC2)c1` the value was inactive: > 76.9 µM; for `COc1ccc(CCNC(=O)c2nnn(-c3ccc4c(c3)OCCO4)c2N)cc1OC`, inactive: > 76.9 µM.
For `COc1ccc(-c2nc(C#N)c(NCc3ccccc3Cl)o2)cc1` the value was inactive: > 76.9 µM; for `C1=C(c2ccc(-c3ccccc3)cc2)Nc2ncnn2C1c1ccco1` (centres undefined), inactive: > 76.9 µM.
Consider `O=C(NCc1ccco1)c1cc2sccc2n1Cc1ccc(F)cc1`, for which the Potency result was “inactive”.
With `CCOc1ccc(NC(=O)C/C(N)=N/O)cc1` the figure was inactive: > 76.9 µM; with `COCc1nnc(NS(=O)(=O)c2ccc(NC(C)=O)cc2)s1`, inactive: > 76.9 µM.
With `COc1ccc(C2SCCN2S(=O)(=O)c2ccc(F)cc2)cc1OC` (centres undefined) the figure was inactive: > 76.9 µM; with `CC(=O)Nc1ccc(S(=O)(=O)NCCC(=O)OCCN2C(=O)c3ccccc3C2=O)cc1`, inactive: > 76.9 µM; with `CN=C(NC#N)SCC(=O)c1ccc(Cl)cc1Cl`, inactive: > 76.9 µM.
Regarding `CN(C)S(=O)(=O)Nc1ccc(C(=O)O)cc1`, the Potency is inactive: > 76.9 µM.
For `OC(COc1cccc(OCC(O)CN2CCOCC2)c1)CN1CCOCC1` (centres undefined) the value was inactive: > 76.9 µM; for `Cc1ccc(S(=O)(=O)NCc2ccc(C(=O)N(C)CCC#N)cc2)cc1`, inactive: > 76.9 µM; for `CN(C(=O)c1cccnc1)c1nc(-c2ccccc2)cs1`, inactive: > 76.9 µM.
For the molecule `CC(C)n1c(N2CCN(CC(=O)NCc3cccs3)CC2)nc2ccccc21`, the Potency is inactive: > 76.9 µM.
Turning to `CCCC(=O)Nc1ccc(C(=O)NCC(=O)OCC)cc1`, the Potency is inactive: > 76.9 µM.
With `COc1ccc(N2CCN(CCNS(=O)(=O)c3cccc4nsnc34)CC2)cc1` the figure was inactive: > 76.9 µM; with `c1csc(-c2nnc(-c3ccc(N4CCOCC4)cc3)o2)c1`, inactive: > 76.9 µM.
With `N#Cc1c(/N=C/c2ccco2)sc2c1CCC2` the figure was inactive: > 76.9 µM; with `CCOc1ccc(-c2nnc(NC(=O)CCCOc3cccc(C)c3)o2)cc1`, inactive: > 76.9 µM; with `CC(C)OC(=O)CSc1nnc(CNc2nc(-c3ccccc3)cs2)n1C`, inactive: > 76.9 µM.

For the origin of these results see PubChem BioAssay AID360 (National Center for Advancing Translational Sciences (NCATS), 2006).
